This is one part of the list. These are noisy estimates, calculated here from bound and input reads.
target: T1, Pho4 (S. cerevisiae) (UniProt P07270); assay: relative binding free energy (BET-seq); higher = weaker binding; conditions: reference: library average
T1 sequence: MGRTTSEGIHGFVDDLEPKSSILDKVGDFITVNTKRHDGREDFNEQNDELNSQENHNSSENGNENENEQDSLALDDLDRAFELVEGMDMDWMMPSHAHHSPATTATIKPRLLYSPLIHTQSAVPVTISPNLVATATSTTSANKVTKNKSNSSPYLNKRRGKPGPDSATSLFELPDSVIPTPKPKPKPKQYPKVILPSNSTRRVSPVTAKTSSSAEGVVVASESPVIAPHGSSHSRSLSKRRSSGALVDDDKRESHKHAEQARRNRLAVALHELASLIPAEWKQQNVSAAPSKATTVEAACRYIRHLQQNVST

| Sequence | relative binding free energy [kcal/mol] |
| --- | --- |
| ATAAGCACGTGTTTGC | -0.04 |
| TTATTCACGTGTGTCT | 0.29 |
| GAGTACACGTGTAGTT | 0.2 |
| ATGTACACGTGTTTCA | -0.08 |
| TTATGCACGTGCCGTT | -0.19 |
| TTCTGCACGTGTCTGG | 0 |
| CTTTACACGTGTTAAT | 0.13 |
| GACGTCACGTGTTGTT | 0.01 |
| TTCTACACGTGTTATT | -0.11 |
| AGTTACACGTGTGTCG | 0.04 |
| CGTTTCACGTGTAGGC | 0.16 |
| TAAGTCACGTGGAGCG | 0.05 |
| TTATTCACGTGGTTGT | 0.25 |
| TCTGTCACGTGGTATG | -0.02 |
| TGTGACACGTGGCATG | -0.1 |
| TGGGCCACGTGGTCAG | -0.17 |
| TGTGGCACGTGACCGG | -0.11 |
| ATTGGCACGTGCAGAT | -0.17 |
| TGGTTCACGTGAATTT | 0.4 |
| GGGAGCACGTGGGCAT | -0.3 |
| GATATCACGTGTTGTC | 0.23 |
| GACTGCACGTGATTTG | 0.29 |
| TATGTCACGTGAGGAT | 0.19 |
| TAATACACGTGTTGTT | 0.06 |
| TTCGTCACGTGCGATT | 0.26 |
| CGCGGCACGTGGTCGT | -0.17 |

| Sequence | relative binding free energy [kcal/mol] |
| --- | --- |
| GGAGACACGTGTATGA | 0.08 |
| GTTTTCACGTGTGCGG | 0.38 |
| GTGAACACGTGGGGAT | -0.02 |
| AAGTGCACGTGGGTAT | -0.12 |
| ATTTGCACGTGTGTCA | 0.04 |
| GGTTTCACGTGGATCG | 0.33 |
| TATCACACGTGAATGT | 0.34 |
| AGGATCACGTGTTATA | 0.15 |
| TTTTTCACGTGATCAT | 0.19 |
| GGATCCACGTGTTTGG | 0.07 |
| TGAGGCACGTGGGGCA | -0.27 |
| AGATACACGTGTGGGC | 0.15 |
| TAGGGCACGTGCTTAT | -0.2 |
| GTGCACACGTGTCGGT | 0.12 |
| GGGGGCACGTGCACTG | -0.03 |
| TCGGGCACGTGTGGTG | 0 |
| ATCGGCACGTGTATAG | -0.05 |
| AGCGCCACGTGGTGGT | -0.18 |
| GAGTTCACGTGTGGTG | 0.36 |
| CGAGGCACGTGGAAGT | 0.02 |
| CTCGGCACGTGAAGTG | 0.07 |
| GAAGCCACGTGATGGG | 0.17 |
| ACAAACACGTGGGTTG | -0.02 |
| TTGAACACGTGGATTG | 0.01 |
| AAGTTCACGTGATAAG | 0.3 |
| GGTCGCACGTGGGCAT | -0.15 |

| Sequence | relative binding free energy [kcal/mol] |
| --- | --- |
| GCTGTCACGTGATGAG | 0.14 |
| ATGTGCACGTGGTTGC | -0.09 |
| ATTGCCACGTGATAGG | 0.03 |
| CATGACACGTGAGGGG | 0.36 |
| GGTGACACGTGCTTTA | 0 |
| TGAGCCACGTGGTCGG | -0.18 |
| GGTTTCACGTGTGATG | 0.29 |
| GTTTACACGTGAGCGA | 0.32 |
| ATGGTCACGTGGGAAA | 0.19 |
| AAGAGCACGTGTTATG | -0.05 |
| TTGTTCACGTGGCGCT | 0.1 |
| GTCGGCACGTGCATGG | -0.16 |
| AGGGGCACGTGGTTTG | -0.13 |
| TTTATCACGTGGATTG | 0.18 |
| TTAGTCACGTGCAGTT | 0.06 |
| TTGATCACGTGTAGGG | 0.13 |
| GTTTGCACGTGCCTTG | 0.05 |
| TATCTCACGTGAGGTG | 0.33 |
| TAGTACACGTGTGTAA | 0.1 |
| ATTATCACGTGTACGG | 0 |
| TTTTTCACGTGGTTCT | 0.34 |
| TTGGTCACGTGGAATA | 0.11 |
| GAGATCACGTGTGTAG | 0.24 |
| TACAGCACGTGTAGTG | -0.11 |
| GAGGACACGTGGATTG | 0.28 |
| TGAGTCACGTGCGTAT | 0.04 |

| Sequence | relative binding free energy [kcal/mol] |
| --- | --- |
| CTGAGCACGTGGTGAG | -0.06 |
| TTTGACACGTGAAATG | 0.03 |
| GTCAGCACGTGATTTG | 0.16 |
| GGGGGCACGTGAGGCT | 0.18 |
| GGGGCCACGTGGAGGC | -0.24 |
| TTTCTCACGTGAGCGT | 0.33 |
| GTGTGCACGTGTGCGA | 0.09 |
| AGAGCCACGTGTGTGG | -0.15 |
| GTGGACACGTGAGGGG | 0.28 |
| TTGTGCACGTGCTTGG | -0.09 |
| GTTTACACGTGAGGAT | 0.5 |
| GTGGGCACGTGGTCTG | -0.24 |
| TTGTGCACGTGGGACA | -0.07 |
| AACGGCACGTGTAGTT | 0.05 |
| CTATTCACGTGGGGAT | 0.15 |
| GTTTGCACGTGAGGGA | 0.26 |
| AGAGTCACGTGAGAAT | 0.45 |
| TGTTGCACGTGATAGC | 0.08 |
| AATGGCACGTGATGCT | 0.07 |
| TAATGCACGTGGCTTT | -0.07 |
| GTGGCCACGTGGGGGA | -0.27 |
| TCGTTCACGTGTTAGT | 0.35 |
| GAGGGCACGTGTGACT | -0.01 |
| AGGCGCACGTGGTGGA | -0.11 |
| TGTCCCACGTGGTGGG | -0.26 |
| AAATACACGTGGGTGG | -0.02 |

| Sequence | relative binding free energy [kcal/mol] |
| --- | --- |
| AGGCACACGTGGGAAG | 0.03 |
| CAGGTCACGTGTTTTT | 0.25 |
| TGTTACACGTGGAGTA | 0.08 |
| AAGTACACGTGTAATT | 0.25 |
| GTAGTCACGTGGTGAT | 0 |
| CTTTGCACGTGGTCTT | -0.09 |
| GTTGTCACGTGGGTTA | 0.03 |
| TCGGTCACGTGGAGGG | 0.12 |
| GGGGGCACGTGATGTT | 0.1 |
| TATGGCACGTGAGGCT | -0.08 |
| TGAGGCACGTGTTCAT | -0.06 |
| CAGCTCACGTGTGTGG | 0.18 |
| GAAAACACGTGATGGT | 0.25 |
| TGGTTCACGTGAGAAA | 0.41 |
| CTGGACACGTGGGGTG | -0.07 |
| ATAGGCACGTGTGACT | -0.03 |
| GTCGGCACGTGAAATT | 0.31 |
| GCAAGCACGTGTAGGG | -0.14 |
| CACGGCACGTGGCGGG | -0.15 |
| GGGTACACGTGGTGCA | -0.06 |
| GGTGGCACGTGGAGGT | 0.01 |
| TGTGGCACGTGGAATA | 0.09 |
| TTGGGCACGTGCCGAA | -0.02 |
| TTTTTCACGTGAACGG | 0.56 |
| TTGATCACGTGAAGTT | 0.39 |
| TTGCGCACGTGGGCAT | -0.15 |

| Sequence | relative binding free energy [kcal/mol] |
| --- | --- |
| AGGCCCACGTGGGGGA | -0.3 |
| TAGGTCACGTGTAAGG | 0.28 |
| TGCTACACGTGTGTTA | 0.04 |
| TGGTCCACGTGGTAAA | 0.03 |
| TGAATCACGTGTTTTT | 0.17 |
| GGTAACACGTGTGATC | 0.2 |
| GGAGGCACGTGGATAT | -0.02 |
| ATAGGCACGTGGTAGC | -0.26 |
| TTCTTCACGTGATTGC | 0.4 |
| CAGTACACGTGGGGGA | -0.11 |
| ATTGTCACGTGGGCAA | -0.14 |
| ATGGGCACGTGCTGTG | -0.18 |
| TAGAGCACGTGAGGAG | 0.05 |
| GGGCTCACGTGTTTTT | 0.28 |
| TGAGCCACGTGTGTCG | 0 |
| AGTTACACGTGTCCGG | 0.17 |
| GTTATCACGTGAGTAA | 0.24 |
| TTCGTCACGTGGGGCG | -0.08 |
| AGGTTCACGTGACTTG | 0.31 |
| TAGGTCACGTGCTTGG | 0.06 |
| CGATGCACGTGTTAGG | -0.01 |
| ATTTACACGTGAGTAA | 0.24 |
| GGAGGCACGTGTCTTT | -0.08 |
| TATGTCACGTGTCGCT | 0.14 |
| GATGTCACGTGCCTGG | 0.09 |
| AAGGACACGTGCGAGG | 0.21 |

| Sequence | relative binding free energy [kcal/mol] |
| --- | --- |
| GTGTGCACGTGCGGAT | 0.05 |
| GAGTACACGTGTTGCT | 0.21 |
| TAGGTCACGTGATGGA | 0.17 |
| GCTGGCACGTGGTTCG | -0.16 |
| TTGGGCACGTGAGGCT | 0.2 |
| GGCAGCACGTGTGGGG | 0 |
| GGGGGCACGTGGCAAG | -0.12 |
| ATATGCACGTGCGTGG | -0.09 |
| ATCTACACGTGGTTGT | 0.08 |
| AGAGGCACGTGAAATG | 0.18 |
| GTGCTCACGTGTGTGT | 0.3 |
| TCTTACACGTGGGTTT | 0.01 |
| TTTTGCACGTGGATAA | 0.01 |
| GGAGGCACGTGGCTGT | -0.22 |
| TGCGACACGTGTGGTA | 0.2 |
| TGTGCCACGTGTGGCA | 0.05 |
| GTTACCACGTGTTTCT | 0.18 |
| CATTACACGTGATTGT | 0.14 |
| TAACTCACGTGGATGT | 0.23 |
| TCAATCACGTGGGGAT | 0.12 |
| GTAAACACGTGTTTGT | 0.05 |
| AGGGACACGTGGGTTT | -0.18 |
| GTCGACACGTGATGGG | 0.24 |
| GGGTTCACGTGTCTAA | 0.32 |
| GGGGACACGTGGAGAA | 0.13 |
| GTTCGCACGTGATTGG | 0.26 |

| Sequence | relative binding free energy [kcal/mol] |
| --- | --- |
| GTGTGCACGTGACGTC | 0.09 |
| AGTTTCACGTGTTGTA | 0.28 |
| TCCAGCACGTGGTGGT | -0.14 |
| CGTGTCACGTGTGTAC | 0.13 |
| GTGTACACGTGTGAAG | 0.2 |
| TGAGGCACGTGACGGG | 0.06 |
| TGGGGCACGTGTTTCG | -0.05 |
| ACGATCACGTGTGGGT | 0.13 |
| TCGGGCACGTGAGGCG | 0.23 |
| TATGTCACGTGTCAGG | 0.09 |
| TGCCGCACGTGGGCGT | -0.17 |
| TTAGGCACGTGGTGAG | -0.07 |
| CGTGTCACGTGGGAGA | 0.09 |
| GTGGACACGTGGATGG | 0.04 |
| GAGGACACGTGATAGT | 0.17 |
| TGGAACACGTGGCGAG | 0 |
| ATGGTCACGTGAGTCA | 0.32 |
| AGTTTCACGTGGCTTA | 0.17 |
| GTACGCACGTGTTTTT | 0.16 |
| TATAGCACGTGGCTTA | -0.09 |
| GGTGGCACGTGTACTA | -0.07 |
| GGCTTCACGTGCGGTA | 0.24 |
| TTGGCCACGTGGGCAG | -0.1 |
| ATGGTCACGTGATTAC | 0.25 |
| TGGGTCACGTGACACG | 0.2 |
| TATTACACGTGTTTGC | 0.11 |

| Sequence | relative binding free energy [kcal/mol] |
| --- | --- |
| CAGTGCACGTGGGGTG | -0.15 |
| TAGCACACGTGGGCGG | -0.08 |
| ATTTTCACGTGAACGT | 0.32 |
| CATTTCACGTGCGTTG | 0.39 |
| TTATTCACGTGGCATG | 0.29 |
| GTTGGCACGTGGCATA | -0.12 |
| CGAATCACGTGTGGTA | 0.26 |
| AGAGGCACGTGTTGCG | -0.18 |
| TTGGGCACGTGTCTAA | -0.06 |
| TTCGTCACGTGGTGAT | 0.13 |
| TACAGCACGTGTTTGG | -0.07 |
| TGGGGCACGTGTAGGA | -0.07 |
| AAGTTCACGTGGGCTT | 0.21 |
| GGAAACACGTGTGGTC | 0.17 |
| ATTTGCACGTGTGGAA | 0.04 |
| CGTGACACGTGGATGG | 0.18 |
| TGCATCACGTGTTAGT | 0.04 |
| GGAATCACGTGCGGTC | 0.24 |
| CGGGTCACGTGGATAT | 0.1 |
| TACAGCACGTGGAGGG | 0.02 |
| GCCGGCACGTGCGGGT | -0.03 |
| GGGTTCACGTGAGGGA | 0.51 |
